{"source": "the supplement of paper PMC8728848", "assay_in_all_cases": "glycan array binding signal (z-score within array); higher = stronger binding", "settings_in_all_cases": "glycan notation: IUPAC condensed, linker removed", "key": {"[1]": {"molecular_target": "GlcNAc(b1-4)GlcNAc(b1-4)GlcNAc(b1-4)GlcNAc(b1-4)GlcNAc", "in_short": "(§1)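 Arrays were curated from the Consortium for Functional Glycomics database, 3228 in total, and kept only where the protein sequence was available. Binding is expressed as a within-array Z-score. This score was averaged across arrays of the same protein sequence at different concentrations or buffers and across linkers, and negative values can be read as non-binding.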"}, "[2]": {"molecular_target": "GlcNAc(b1-4)GlcNAc(b1-4)GlcNAc(b1-4)GlcNAc(b1-4)GlcNAc(b1-4)GlcNAc", "in_short": "as §1"}, "[3]": {"molecular_target": "GlcNAc(b1-4)[GlcNAc(b1-6)]GalNAc", "in_short": "as §1"}, "[4]": {"molecular_target": "GlcNAc(b1-6)Gal(b1-4)GlcNAc", "in_short": "as §1"}, "GlcNAc(b1-6)GalNAc": {"molecular_target": "GlcNAc(b1-6)GalNAc", "in_short": "as §1"}, "[5]": {"molecular_target": "GlcNAc6S(b1-3)Gal(b1-4)GlcNAc", "in_short": "as §1"}, "Kdn(a2-3)Gal(b1-3)GalNAc": {"molecular_target": "Kdn(a2-3)Gal(b1-3)GalNAc", "in_short": "as §1"}, "Kdn(a2-3)Gal(b1-3)GlcNAc": {"molecular_target": "Kdn(a2-3)Gal(b1-3)GlcNAc", "in_short": "as §1"}, "Kdn(a2-3)Gal(b1-4)Glc": {"molecular_target": "Kdn(a2-3)Gal(b1-4)Glc", "in_short": "as §1"}, "Kdn(a2-3)Gal(b1-4)GlcNAc": {"molecular_target": "Kdn(a2-3)Gal(b1-4)GlcNAc", "in_short": "as §1"}, "[6]": {"molecular_target": "Kdn(a2-3)Gal(b1-4)[Fuc(a1-3)]GlcNAc", "in_short": "as §1"}, "Kdn(a2-6)Gal(b1-4)GlcNAc": {"molecular_target": "Kdn(a2-6)Gal(b1-4)GlcNAc", "in_short": "as §1"}, "[7]": {"molecular_target": "Man(a1-2)Man(a1-2)Man(a1-3)Man", "in_short": "as §1"}, "[8]": {"molecular_target": "Man(a1-2)Man(a1-2)Man(a1-6)[Man(a1-3)]Man", "in_short": "as §1"}, "Man(a1-2)Man(a1-3)Man": {"molecular_target": "Man(a1-2)Man(a1-3)Man", "in_short": "as §1"}, "[9]": {"molecular_target": "Man(a1-2)Man(a1-3)[Man(a1-2)Man(a1-6)]Man", "in_short": "as §1"}, "[10]": {"molecular_target": "Man(a1-2)Man(a1-3)[Man(a1-2)Man(a1-6)]Man(a1-6)[Man(a1-2)Man(a1-2)Man(a1-3)]Man", "in_short": "as §1"}, "[11]": {"molecular_target": "Man(a1-2)Man(a1-3)[Man(a1-2)Man(a1-6)]Man(a1-6)[Man(a1-2)Man(a1-2)Man(a1-3)]Man(b1-4)GlcNAc(b1-4)GlcNAc", "in_short": "as §1"}, "[12]": {"molecular_target": "Man(a1-2)Man(a1-3)[Man(a1-6)]Man(a1-6)[Man(a1-2)Man(a1-3)]Man(b1-4)GlcNAc(b1-4)GlcNAc", "in_short": "as §1"}, "[13]": {"molecular_target": "Man(a1-2)Man(a1-6)[Man(a1-3)]Man(a1-6)[Man(a1-2)Man(a1-2)Man(a1-3)]Man", "in_short": "as §1"}, "[14]": {"molecular_target": "Man(a1-2)Man(a1-6)[Man(a1-3)]Man(a1-6)[Man(a1-2)Man(a1-2)Man(a1-3)]Man(b1-4)GlcNAc(b1-4)GlcNAc", "in_short": "as §1"}, "Man(a1-3)[Man(a1-6)]Man": {"molecular_target": "Man(a1-3)[Man(a1-6)]Man", "in_short": "as §1"}, "[15]": {"molecular_target": "Man(a1-3)[Man(a1-6)]Man(a1-6)[Man(a1-2)Man(a1-3)]Man(b1-4)GlcNAc(b1-4)GlcNAc", "in_short": "as §1"}, "[16]": {"molecular_target": "Man(a1-3)[Man(a1-6)]Man(a1-6)[Man(a1-3)]Man", "in_short": "as §1"}, "[17]": {"molecular_target": "Man(a1-3)[Man(a1-6)]Man(a1-6)[Man(a1-3)]Man(b1-4)GlcNAc(b1-4)GlcNAc", "in_short": "as §1"}, "[18]": {"molecular_target": "Man(a1-3)[Man(a1-6)]Man(b1-4)GlcNAc(b1-4)GlcNAc", "in_short": "as §1"}, "[19]": {"molecular_target": "Man(a1-3)[Man(a1-6)]Man(b1-4)GlcNAc(b1-4)[Fuc(a1-6)]GlcNAc", "in_short": "as §1"}, "Man(a1-6)Man": {"molecular_target": "Man(a1-6)Man", "in_short": "as §1"}, "Man(b1-4)GlcNAc": {"molecular_target": "Man(b1-4)GlcNAc", "in_short": "as §1"}, "MurNAc(b1-4)GlcNAc": {"molecular_target": "MurNAc(b1-4)GlcNAc", "in_short": "as §1"}, "Neu5Ac(a2-3)Gal": {"molecular_target": "Neu5Ac(a2-3)Gal", "in_short": "as §1"}, "[20]": {"molecular_target": "Neu5Ac(a2-3)Gal(b1-3)GalNAc", "in_short": "as §1"}, "[21]": {"molecular_target": "Neu5Ac(a2-3)Gal(b1-3)GalNAc(b1-3)Gal(a1-4)Gal(b1-4)Glc", "in_short": "as §1"}, "[22]": {"molecular_target": "Neu5Ac(a2-3)Gal(b1-3)GalNAc(b1-4)Gal(b1-4)Glc", "in_short": "as §1"}, "[23]": {"molecular_target": "Neu5Ac(a2-3)Gal(b1-3)GalNAc(b1-4)[Neu5Ac(a2-3)]Gal(b1-4)Glc", "in_short": "as §1"}, "[24]": {"molecular_target": "Neu5Ac(a2-3)Gal(b1-3)GalNAc(b1-4)[Neu5Ac(a2-8)Neu5Ac(a2-3)]Gal(b1-4)Glc", "in_short": "as §1"}, "[25]": {"molecular_target": "Neu5Ac(a2-3)Gal(b1-3)GalNAc6S", "in_short": "as §1"}}, "note": "The other results are listed elsewhere or left out.", "data": [{"binder": "Sebin2 (Coprinopsis cinerea), A8PE78 (protein) MTTPFYAYCHNVQDDNTWRLGLVFANRSTADEWWRAISEATSSIPITKSITRVTPQYYTHDIRVWNMYNFFVDGNIKSISDKFRGRLFITLEYDRSGRGVSVFPPLHIVDHVSGNWYYIRSKTAPHLFWFYDETRNAIYASKEKRTRFKVSIRNPSPQTPKDAIMINSDDVVIHIKESLYVGVDSYLGHIIPTRAYRTFKFGELEGGAIAGIEVAENAEERCSSTFDGASLYFVGPDSSSPGEPWELV", "values": [{"measurement": "glycan array binding signal (z-score)", "setting": "[1]", "value": -0.339}, {"measurement": "glycan array binding signal (z-score)", "setting": "[2]", "value": -0.328}, {"measurement": "glycan array binding signal (z-score)", "setting": "[3]", "value": -0.386}, {"measurement": "glycan array binding signal (z-score)", "setting": "[4]", "value": -0.437}, {"measurement": "glycan array binding signal (z-score)", "setting": "GlcNAc(b1-6)GalNAc", "value": -0.229}, {"measurement": "glycan array binding signal (z-score)", "setting": "[5]", "value": -0.292}, {"measurement": "glycan array binding signal (z-score)", "setting": "Kdn(a2-3)Gal(b1-3)GalNAc", "value": -0.28}, {"measurement": "glycan array binding signal (z-score)", "setting": "Kdn(a2-3)Gal(b1-3)GlcNAc", "value": 0.161}, {"measurement": "glycan array binding signal (z-score)", "setting": "Kdn(a2-3)Gal(b1-4)Glc", "value": 0.082}, {"measurement": "glycan array binding signal (z-score)", "setting": "Kdn(a2-3)Gal(b1-4)GlcNAc", "value": 0.172}, {"measurement": "glycan array binding signal (z-score)", "setting": "[6]", "value": -0.144}, {"measurement": "glycan array binding signal (z-score)", "setting": "Kdn(a2-6)Gal(b1-4)GlcNAc", "value": -0.048}, {"measurement": "glycan array binding signal (z-score)", "setting": "[7]", "value": -0.323}, {"measurement": "glycan array binding signal (z-score)", "setting": "[8]", "value": -0.26}, {"measurement": "glycan array binding signal (z-score)", "setting": "Man(a1-2)Man(a1-3)Man", "value": -0.442}, {"measurement": "glycan array binding signal (z-score)", "setting": "[9]", "value": -0.437}, {"measurement": "glycan array binding signal (z-score)", "setting": "[10]", "value": -0.001}, {"measurement": "glycan array binding signal (z-score)", "setting": "[11]", "value": -0.247}, {"measurement": "glycan array binding signal (z-score)", "setting": "[12]", "value": -0.499}, {"measurement": "glycan array binding signal (z-score)", "setting": "[13]", "value": -0.122}, {"measurement": "glycan array binding signal (z-score)", "setting": "[14]", "value": -0.265}, {"measurement": "glycan array binding signal (z-score)", "setting": "Man(a1-3)[Man(a1-6)]Man", "value": -0.087}, {"measurement": "glycan array binding signal (z-score)", "setting": "[15]", "value": 0.525}, {"measurement": "glycan array binding signal (z-score)", "setting": "[16]", "value": 0.238}, {"measurement": "glycan array binding signal (z-score)", "setting": "[17]", "value": -0.138}, {"measurement": "glycan array binding signal (z-score)", "setting": "[18]", "value": -0.381}, {"measurement": "glycan array binding signal (z-score)", "setting": "[19]", "value": -0.016}, {"measurement": "glycan array binding signal (z-score)", "setting": "Man(a1-6)Man", "value": 0.024}, {"measurement": "glycan array binding signal (z-score)", "setting": "Man(b1-4)GlcNAc", "value": -0.209}, {"measurement": "glycan array binding signal (z-score)", "setting": "MurNAc(b1-4)GlcNAc", "value": -0.264}, {"measurement": "glycan array binding signal (z-score)", "setting": "Neu5Ac(a2-3)Gal", "value": -0.73}, {"measurement": "glycan array binding signal (z-score)", "setting": "[20]", "value": 6.35}, {"measurement": "glycan array binding signal (z-score)", "setting": "[21]", "value": 0.068}, {"measurement": "glycan array binding signal (z-score)", "setting": "[22]", "value": -0.228}, {"measurement": "glycan array binding signal (z-score)", "setting": "[23]", "value": -0.179}, {"measurement": "glycan array binding signal (z-score)", "setting": "[24]", "value": -0.915}, {"measurement": "glycan array binding signal (z-score)", "setting": "[25]", "value": -0.025}]}]}
